We go through 55 compounds from PMC4336329 (PLoS ONE, 2015).

Screen size: about 310,000 compounds; about 14,000 (4.5%) showed an effect of 50% or more. Effects have a minus sign here. Some of the results follow.
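Note: peak tail current of the secondary pulse compared with the same well before compound.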

human ether-à-go-go-related gene (hERG) potassium channel, sequence (Q12809 whole entry, looked up): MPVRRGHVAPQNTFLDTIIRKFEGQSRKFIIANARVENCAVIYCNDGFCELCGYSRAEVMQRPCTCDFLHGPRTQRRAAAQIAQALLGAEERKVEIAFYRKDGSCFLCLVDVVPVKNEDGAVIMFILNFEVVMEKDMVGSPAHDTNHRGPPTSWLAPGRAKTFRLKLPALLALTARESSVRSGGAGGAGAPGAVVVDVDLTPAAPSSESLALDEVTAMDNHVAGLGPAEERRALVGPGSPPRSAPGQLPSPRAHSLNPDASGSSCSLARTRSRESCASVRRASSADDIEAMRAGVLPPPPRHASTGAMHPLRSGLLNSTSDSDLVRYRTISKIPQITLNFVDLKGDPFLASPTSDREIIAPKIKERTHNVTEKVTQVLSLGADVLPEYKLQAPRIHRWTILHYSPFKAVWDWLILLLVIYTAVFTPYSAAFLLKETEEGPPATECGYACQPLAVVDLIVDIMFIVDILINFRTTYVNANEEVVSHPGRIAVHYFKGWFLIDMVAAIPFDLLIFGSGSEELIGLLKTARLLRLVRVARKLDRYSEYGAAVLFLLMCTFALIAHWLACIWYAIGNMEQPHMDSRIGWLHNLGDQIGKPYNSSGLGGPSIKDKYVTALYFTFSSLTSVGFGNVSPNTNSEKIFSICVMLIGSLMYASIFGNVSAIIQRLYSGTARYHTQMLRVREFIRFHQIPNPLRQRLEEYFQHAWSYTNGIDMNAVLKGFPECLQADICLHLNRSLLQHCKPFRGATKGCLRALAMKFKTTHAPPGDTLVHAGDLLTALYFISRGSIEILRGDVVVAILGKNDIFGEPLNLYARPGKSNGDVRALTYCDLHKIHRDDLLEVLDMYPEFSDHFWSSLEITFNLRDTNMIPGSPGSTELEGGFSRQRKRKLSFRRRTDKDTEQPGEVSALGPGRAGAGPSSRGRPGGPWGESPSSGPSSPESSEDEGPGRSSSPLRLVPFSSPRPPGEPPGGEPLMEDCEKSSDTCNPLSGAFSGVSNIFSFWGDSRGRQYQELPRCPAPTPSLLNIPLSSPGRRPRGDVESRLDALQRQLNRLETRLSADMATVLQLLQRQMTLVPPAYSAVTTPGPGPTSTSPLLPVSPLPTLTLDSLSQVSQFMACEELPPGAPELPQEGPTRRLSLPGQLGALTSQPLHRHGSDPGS

This experiment addresses human ether-à-go-go-related gene (hERG) potassium channel (human, UniProt Q12809). The experiment is described as follows: primary screen, population patch clamp on CHO cells stably expressing hERG.
For `CC(C)CC1=NN(C(=O)c2ccncc2)C(O)(C(F)(F)F)C1` (stereo not shown), the “hERG current change (%, negative = inhibition) at 10uM” value is on record as 1.21%.
The result for `O=C(CSc1ccc2nnc(-c3ccccc3)n2n1)N1CCCCC1` reads -59.7%; that for `CCCCC(CCC(=O)Nc1ccc(C(=O)OCC)cc1)C(=O)O` (stereo not shown), 5.23%; that for `CCn1c(=O)cc(OCC(=O)Nc2nc(C)cs2)c2ccccc21`, 5.99%.
With `COc1ccc(CN2CCN(c3ccccn3)CC2)c(OC)c1C.O=C([O-])C(=O)[O-]`, the “hERG current change (%, negative = inhibition) at 10uM” value is -55.8%.
The result for `COc1ccc(/C=C2\SC(=O)N(CCNC(=O)C3CCN(S(=O)(=O)c4cccs4)CC3)C2=O)cc1` reads 0.693%; that for `Cc1ccc(C)c(OCCn2nnc3ccccc32)c1`, 14.2%; that for `CCOc1ccc2nc3sc(C(=O)N4CCN(C)CC4)c(N)c3cc2c1`, 3.74%.
The figure for `CCOc1ccc(N(C(C)C(=O)Nc2cccnc2)S(C)(=O)=O)cc1` (stereo not shown) is 2.99%; for `CCN(CC)S(=O)(=O)c1ccc2oc(Nc3ccc(OC)cc3)nc2c1` it is 15.2%.
The figure for `COc1c(Br)cc([N+](=O)[O-])c(OC)c1C(=O)NC(=O)Nc1c(Cl)cccc1Cl` is 17.3%.
On to `O=C(N/C(=C/c1ccccc1Cl)C(=O)N1CCCC1)c1ccccc1`, for which the “hERG current change (%, negative = inhibition) at 10uM” value was -5.15%.
The figure for `CC(C)C[C@H](NC(=O)[C@@H]1Cc2ccccc2CN1C(=O)OC(C)(C)C)C(=O)NCC1CCC(C(=O)O)CC1` (stereo partly shown) is 8.49%.
The result for `O=C(Nc1ccc(S(=O)(=O)NC2CCCC2)cc1)c1cnccn1` reads -7.47%; that for `O=S(=O)(NCCc1c[nH]c2ccccc12)c1ccccc1`, 15.1%; that for `O=C(C1CCCN(S(=O)(=O)c2cccc3nsnc23)C1)N1CCC2(CC1)OCCO2` (stereo not shown), -4.58%.
The figure for `Cc1ccccc1-n1nc2c(c1NC(=O)c1ccco1)CS(=O)(=O)C2` is 9.22%.
Turning to `Cc1ccc(C(=O)O/N=C(\N)c2ccccn2)cc1`, the “hERG current change (%, negative = inhibition) at 10uM” value was 8.63%.
The figure for `CCOc1ccc(CN(C)C(=O)c2cccnc2OCC)cc1OC` is -15.6%; for `COc1cc(C(=O)NCCc2ccc(S(N)(=O)=O)cc2)cc(OC)c1OC` it is 11.9%.
For the compound `CCCCn1c(SC(C)C(=O)NCC2CCCO2)nc2cc(C(=O)OC)ccc2c1=O` (stereo not shown), the “hERG current change (%, negative = inhibition) at 10uM” value was -44.9%.
Take `COc1ccc(/C=N/NC(=O)c2sccc2OCc2ccc(F)cc2)cc1OC`: the “hERG current change (%, negative = inhibition) at 10uM” value is listed as 10.1%.
The result for `COc1ccc2nc(N/C(N)=N/C(=S)Nc3c(C)cccc3C)nc(C)c2c1` reads 0.836%; that for `C=CCc1ccc(OCc2ccc(C(=O)Nc3ccc(NC(C)=O)cc3)o2)c(OC)c1`, 6.46%; that for `COc1ccccc1N1CCN(CCCCN2C(=O)C3CCCCN3C2=O)CC1` (stereo not shown), -12.8%.
The figure for `C=C1C(C(=O)N2CCN(C)CC2)C1C(=O)N1CCN(C)CC1` (stereo not shown) is -2.23%.
As for `c1ccc(OCc2nn3c(-c4ccncc4)nnc3s2)cc1`, the “hERG current change (%, negative = inhibition) at 10uM” value was -15.9%.
The result for `COc1ccc(NC(=O)C(=S)NC2CCCCC2)cc1` reads -20.6%; that for `Cc1cc(NC(=O)COC(=O)c2nccnc2N)n(-c2ccccc2)n1`, 12.2%.
The result for `CS(=O)(=O)c1ccc(Cl)c(NC(=O)CSc2nncn2-c2ccccc2)c1` reads -38.1%; that for `Clc1ccc(CNc2ccc(CNc3ncn[nH]3)cc2)cc1`, -7.87%.
On to `Cc1nc2nc(C)c(CCC(=O)N3CCC4(CC3)OCCO4)c(C)n2n1`, for which the “hERG current change (%, negative = inhibition) at 10uM” value is recorded as 0.0738%.
In the case of `CCc1ccc(CNC(=O)C2Cc3cc(S(=O)(=O)N4CCCC4)ccc3N2C(C)=O)cc1` (stereo not shown), the “hERG current change (%, negative = inhibition) at 10uM” value is on record as -25.9%.
The result for `CCOc1cc(C)nc(NCc2ccccc2)n1` reads -3.43%; that for `CC(C)n1nc(C(=O)OCC(=O)c2c[nH]c3ccccc23)c2ccccc2c1=O`, 0.434%; that for `Cc1ccc(-n2c(-c3cccs3)nc3nc4ccccc4nc32)cc1`, 2.4%.
The figure for `COC(=O)C1=C(C)NC(=O)C1(Nc1nccs1)C(F)(F)F` (stereo not shown) is 7.41%; for `O=C(c1ccccc1C(=O)N1CCN(c2ccc(F)cc2)CC1)N1CCN(c2ccc(F)cc2)CC1` it is -73.8%.
The result for `N#Cc1ccccc1OCC(=O)OCCCOC(=O)COc1ccccc1C#N` reads 10.1%; that for `COc1ccc(OC)c(CNC(=O)Cn2nc(C)c3c(C)n(-c4ccc(C)cc4)nc3c2=O)c1`, 3.27%.
Regarding `COCCCNc1nc(N)c([N+](=O)[O-])c(NCc2ccccc2)n1`, the “hERG current change (%, negative = inhibition) at 10uM” value is 13%.
The result for `COCCOCC(O)CN1CCN(c2ccc(C)cc2)CC1.O=C(O)C(=O)O` (stereo not shown) reads -11.2%; that for `CC(C)C(=O)Nc1ccc(-c2nnc(-c3ccccc3)o2)cc1`, 14%; that for `O=c1[nH]c(O)c(C=Nc2ccc(Cl)c(C(F)(F)F)c2)c(=O)[nH]1`, 7.57%.
The result for `CC(C)(C)c1cc(NC(=O)COC(=O)c2ccc(O)cc2O)n(-c2ccccc2)n1` reads -79.3%.
The figure for `COCCCNC(=O)c1cc2c(=O)n3cc(C)ccc3nc2nc1NCC1CCCO1` (stereo not shown) is -71.9%; for `Cc1cc(OCCN2CCCC2)ccc1C(C)C` it is -22.5%; for `O=C(c1ccc(Cl)cc1Cl)N1CCSCC1` it is 15.4%.
As for `COc1ccc(Cl)c2sc(N(CCN(C)C)C(=O)CCS(=O)(=O)c3ccc(C)cc3)nc12.Cl`, the “hERG current change (%, negative = inhibition) at 10uM” value is listed as -7.51%.
Turning to `CCOc1ccc(S(=O)(=O)NC2CCCC2)cc1C`, the “hERG current change (%, negative = inhibition) at 10uM” value is -1.86%.
The figure for `Cc1cc(/C=C2\C(=O)NC(=O)N(c3ccc(F)cc3)C2=O)c(C)n1-c1ccc(C(=O)O)cc1` is 20.6%; for `N#C/C(=C\c1coc2ccccc2c1=O)C(N)=S` it is 14.5%; for `Cc1oc(-c2ccccc2F)nc1CSCC(=O)NC1CCCC1` it is 2.35%.
The result for `CCc1ccc(-c2nc(CN3CCC(C(=O)N4CCN(c5ccccc5)CC4)CC3)c(C)o2)cc1` reads -71.3%; that for `CCN(CC(=O)NCc1cccs1)C(=O)/C=C/c1cccc(Cl)c1Cl`, 4.92%.
